{
  "source": "the supplement of paper PMC8728848",
  "binders": {"B1": {"name": "Sialidase (Vibrio cholerae), P37060 (protein)", "chain": "GAMALFDYNATGDTEFDSPAKQGWMQDNTNNGSGVLTNADGMPAWLVQGIGGRAQWTYSLSTNQHAQASSFGWRMTTEMKVLSGGMITNYYANGTQRVLPIISLDSSGNLVVEFEGQTGRTVLATGTAATEYHKFELVFLPGSNPSASFYFDGKLIRDNIQPTASKQNMIVWGNGSSNTDGVAAYRDIKFEIQGDALNGSMALFDYNATGDTEFDSPAKQGWMQDNTNNGSGVLTNADGMPAWLVQGIGGRAQWTYSLSTNQHAQASSFGWRMTTEMKVLSGGMITNYYANGTQRVLPIISLDSSGNLVVEFEGQTGRTVLATGTAATEYHKFELVFLPGSNPSASFYFDGKLIRDNIQPTASKQNMIVWGNGSSNTDGVAAYRDIKFEIQGDLQALGMALFDYNATGDTEFDSPAKQGWMQDNTNNGSGVLTNADGMPAWLVQGIGGRAQWTYSLSTNQHAQASSFGWRMTTEMKVLSGGMITNYYANGTQRVLPIISLDSSGNLVVEFEGQTGRTVLATGTAATEYHKFELVFLPGSNPSASFYFDGKLIRDNIQPTASKQNMIVWGNGSSNTDGVAAYRDIKFEIQGD"}},
  "test_in_all_cases": "glycan array binding signal (z-score within array); higher = stronger binding",
  "conditions_in_all_cases": "glycan notation: IUPAC condensed, linker removed",
  "key": {"Glc(a1-4)Glc": {"target": "Glc(a1-4)Glc", "summary_of_the_method": "(§1)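 Glycan array data came from 3228 arrays in the Consortium for Functional Glycomics database, and only arrays with an available protein sequence were kept. Glycan names were put into IUPAC-condensed notation, and columns mapping to the same glycan were averaged. The binding signal is a within-array Z-score, averaged across arrays of one protein sequence run at different concentrations or buffers and across linkers. A negative Z-score can be read as non-binding.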"}, "Glc(a1-6)Glc(a1-6)Glc": {"target": "Glc(a1-6)Glc(a1-6)Glc", "summary_of_the_method": "as §1"}, "Glc(b1-4)Glc": {"target": "Glc(b1-4)Glc", "summary_of_the_method": "as §1"}, "Glc(b1-6)Glc": {"target": "Glc(b1-6)Glc", "summary_of_the_method": "as §1"}, "GlcA(b1-3)Gal": {"target": "GlcA(b1-3)Gal", "summary_of_the_method": "as §1"}, "GlcA(b1-3)GlcNAc": {"target": "GlcA(b1-3)GlcNAc", "summary_of_the_method": "as §1"}, "GlcA(b1-6)Gal": {"target": "GlcA(b1-6)Gal", "summary_of_the_method": "as §1"}, "[1]": {"target": "GlcNAc(a1-3)Gal(b1-4)GlcNAc", "summary_of_the_method": "as §1"}, "[2]": {"target": "GlcNAc(a1-4)Gal(b1-3)GlcNAc", "summary_of_the_method": "as §1"}, "[3]": {"target": "GlcNAc(a1-4)Gal(b1-4)GalNAc", "summary_of_the_method": "as §1"}, "[4]": {"target": "GlcNAc(a1-4)Gal(b1-4)GlcNAc", "summary_of_the_method": "as §1"}, "[5]": {"target": "GlcNAc(a1-4)Gal(b1-4)GlcNAc(b1-3)Gal(b1-4)Glc", "summary_of_the_method": "as §1"}, "[6]": {"target": "GlcNAc(a1-4)Gal(b1-4)GlcNAc(b1-3)Gal(b1-4)GlcNAc", "summary_of_the_method": "as §1"}, "[7]": {"target": "GlcNAc(a1-4)Gal(b1-4)GlcNAc(b1-3)Gal(b1-4)GlcNAc(b1-3)Gal(b1-4)GlcNAc", "summary_of_the_method": "as §1"}, "[8]": {"target": "GlcNAc(a1-4)Gal(b1-4)GlcNAc(b1-3)Gal(b1-4)[Fuc(a1-3)]GlcNAc(b1-3)Gal(b1-4)[Fuc(a1-3)]GlcNAc", "summary_of_the_method": "as §1"}, "[9]": {"target": "GlcNAc(a1-6)Gal(b1-4)GlcNAc", "summary_of_the_method": "as §1"}, "[10]": {"target": "GlcNAc(b1-2)Gal(b1-3)GalNAc", "summary_of_the_method": "as §1"}, "[11]": {"target": "GlcNAc(b1-2)Man(a1-3)[GlcNAc(b1-2)Man(a1-6)]Man(b1-4)GlcNAc(b1-4)GlcNAc", "summary_of_the_method": "as §1"}, "[12]": {"target": "GlcNAc(b1-2)Man(a1-3)[GlcNAc(b1-2)Man(a1-6)]Man(b1-4)GlcNAc(b1-4)[Fuc(a1-6)]GlcNAc", "summary_of_the_method": "as §1"}, "GlcNAc(b1-3)Gal": {"target": "GlcNAc(b1-3)Gal", "summary_of_the_method": "as §1"}, "[13]": {"target": "GlcNAc(b1-3)Gal(b1-3)GalNAc", "summary_of_the_method": "as §1"}, "GlcNAc(b1-3)Gal(b1-4)Glc": {"target": "GlcNAc(b1-3)Gal(b1-4)Glc", "summary_of_the_method": "as §1"}, "[14]": {"target": "GlcNAc(b1-3)Gal(b1-4)GlcNAc", "summary_of_the_method": "as §1"}, "[15]": {"target": "GlcNAc(b1-3)Gal(b1-4)GlcNAc(b1-3)Gal(b1-4)GlcNAc", "summary_of_the_method": "as §1"}, "GlcNAc(b1-3)GalNAc": {"target": "GlcNAc(b1-3)GalNAc", "summary_of_the_method": "as §1"}, "GlcNAc(b1-3)Man": {"target": "GlcNAc(b1-3)Man", "summary_of_the_method": "as §1"}, "[16]": {"target": "GlcNAc(b1-3)[GlcNAc(b1-4)][GlcNAc(b1-6)]GlcNAc", "summary_of_the_method": "as §1"}, "[17]": {"target": "GlcNAc(b1-3)[GlcNAc(b1-6)]Gal(b1-4)GlcNAc", "summary_of_the_method": "as §1"}, "[18]": {"target": "GlcNAc(b1-3)[GlcNAc(b1-6)]GalNAc", "summary_of_the_method": "as §1"}, "[19]": {"target": "GlcNAc(b1-4)Gal(b1-4)GlcNAc", "summary_of_the_method": "as §1"}},
  "note": "This is one part of the list.",
  "data": [
    {"binder": "B1", "values": [
      {"measurement": "glycan array binding signal (z-score)", "setting": "Glc(a1-4)Glc", "value": -0.339},
      {"measurement": "glycan array binding signal (z-score)", "setting": "Glc(a1-6)Glc(a1-6)Glc", "value": -0.616},
      {"measurement": "glycan array binding signal (z-score)", "setting": "Glc(b1-4)Glc", "value": -0.344},
      {"measurement": "glycan array binding signal (z-score)", "setting": "Glc(b1-6)Glc", "value": -0.416},
      {"measurement": "glycan array binding signal (z-score)", "setting": "GlcA(b1-3)Gal", "value": -0.625},
      {"measurement": "glycan array binding signal (z-score)", "setting": "GlcA(b1-3)GlcNAc", "value": -0.465},
      {"measurement": "glycan array binding signal (z-score)", "setting": "GlcA(b1-6)Gal", "value": -0.085},
      {"measurement": "glycan array binding signal (z-score)", "setting": "[1]", "value": -0.392},
      {"measurement": "glycan array binding signal (z-score)", "setting": "[2]", "value": -0.238},
      {"measurement": "glycan array binding signal (z-score)", "setting": "[3]", "value": 0.038},
      {"measurement": "glycan array binding signal (z-score)", "setting": "[4]", "value": -0.669},
      {"measurement": "glycan array binding signal (z-score)", "setting": "[5]", "value": -0.574},
      {"measurement": "glycan array binding signal (z-score)", "setting": "[6]", "value": -0.648},
      {"measurement": "glycan array binding signal (z-score)", "setting": "[7]", "value": 1.56},
      {"measurement": "glycan array binding signal (z-score)", "setting": "[8]", "value": 0.255},
      {"measurement": "glycan array binding signal (z-score)", "setting": "[9]", "value": -0.128},
      {"measurement": "glycan array binding signal (z-score)", "setting": "[10]", "value": -0.639},
      {"measurement": "glycan array binding signal (z-score)", "setting": "[11]", "value": -0.228},
      {"measurement": "glycan array binding signal (z-score)", "setting": "[12]", "value": -0.267},
      {"measurement": "glycan array binding signal (z-score)", "setting": "GlcNAc(b1-3)Gal", "value": -0.629},
      {"measurement": "glycan array binding signal (z-score)", "setting": "[13]", "value": -0.682},
      {"measurement": "glycan array binding signal (z-score)", "setting": "GlcNAc(b1-3)Gal(b1-4)Glc", "value": -0.495},
      {"measurement": "glycan array binding signal (z-score)", "setting": "[14]", "value": -0.517},
      {"measurement": "glycan array binding signal (z-score)", "setting": "[15]", "value": 0.631},
      {"measurement": "glycan array binding signal (z-score)", "setting": "GlcNAc(b1-3)GalNAc", "value": -0.471},
      {"measurement": "glycan array binding signal (z-score)", "setting": "GlcNAc(b1-3)Man", "value": -0.245},
      {"measurement": "glycan array binding signal (z-score)", "setting": "[16]", "value": -0.57},
      {"measurement": "glycan array binding signal (z-score)", "setting": "[17]", "value": -0.537},
      {"measurement": "glycan array binding signal (z-score)", "setting": "[18]", "value": -0.499},
      {"measurement": "glycan array binding signal (z-score)", "setting": "[19]", "value": -0.314}
    ]}
  ]
}
